The other results are listed elsewhere or left out.

The values below come from a collection of fitness landscapes (doi:10.1126/science.1257360).

Sequences and labels used below:
B1: PhoQ; a variant is named by its letters at X, in order, P23837 (parent)
chain: MKKLLRLFFPLSLRVRFLLATAAVVLVLSLAYGMVALIGYSVSFDKTTFRLLRGESNLFYTLAKWENNKLHVELPENIDKQSPTMTLIYDENGQLLWAQRDVPWLMKMIQPDWLKSNGFHEIEADVNDTSLLLSGDHSIQQQLQEVREDDDDAEMTHSVAVNVYPATSRMPKLTIVVVDTIPVELKSSYMVWSWFIYVLSANLLLVIPLLWVAAWWSLRPIEALAKEVRELEEHNRELLNPATTRELTSLVRNLNRLLKSERERYDKYRTTLTDLTHSLKTPLXXLQXXLRSLRSEKMSVSDAEPVMLEQISRISQQIGYYLHRASMRGGTLLSRELHPVAPLLDNLTSALNKVYQRKGVNISLDISPEISFVGEQNDFVEVMGNVLDNACKYCLEFVEISARQTDEHLYIVVEDDGPGIPLSKREVIFDRGQRVDTLRPGQGVGLAVAREITEQYEGKIVAGESMLGGARMEVIFGRQHSAPKDE

Variants of B1 are the subject of the assay. Nature of the assay: enrichment ratio after two sorts for PhoP signalling (ratio (wild type AVST 3.29)); higher = more functional. Particulars: with PhoP (E. coli).
MRMC: the enrichment ratio is no more than 0.25.

Turning to TVLM, the enrichment ratio stood at 0.847. The same measure for DPSF: no more than 0.25; for TDPI: no more than 0.25. As for DSLQ, the figure is no more than 0.25; as for VVPM, no more than 0.25. The same measure for TNMR: 1.75. With DFVE, the enrichment ratio is no more than 0.25. The same measure for HQTI: no more than 0.25; for FWMQ: no more than 0.25; for KRKR: no more than 0.25. As for EINH, the figure is no more than 0.25.

As to HCSY, the enrichment ratio was no more than 0.25. As for SKNE, the enrichment ratio was no more than 0.25.

Regarding ILMC, the enrichment ratio is no more than 0.25. The same measure for ANQP: no more than 0.25. As for GQKG, the figure is no more than 0.25. As for SCFA, the figure is 0.377; as for KRGN, no more than 0.25. On to GNVF, for which the enrichment ratio was no more than 0.25. Take IATT: the enrichment ratio is no more than 0.25. As for YKYC, the figure is no more than 0.25. As to VLTT, the enrichment ratio is no more than 0.25. As for KPFQ, the figure is no more than 0.25; as for PRQG, no more than 0.25. With MCVP, the enrichment ratio is no more than 0.25. As for STPQ, the figure is no more than 0.25; as for FNRQ, no more than 0.25. For the variant VYKC, the enrichment ratio was no more than 0.25. Regarding MCCW, the enrichment ratio was no more than 0.25. QLVL: the enrichment ratio was no more than 0.25.

For MAGD, the enrichment ratio was no more than 0.25.

Regarding LPDG, the enrichment ratio is no more than 0.25. As for REWP, the figure is no more than 0.25; as for RWDY, no more than 0.25. As for SHLI, the figure is 10.2; as for HWIE, no more than 0.25. As for HNGE, the figure is no more than 0.25; as for HPQG, no more than 0.25. Regarding YENR, the enrichment ratio is no more than 0.25. The same measure for IANH: no more than 0.25; for LTEQ: no more than 0.25. Turning to NCPC, the enrichment ratio was no more than 0.25. The same measure for WPDP: no more than 0.25; for GWPH: no more than 0.25. As for MMPK, the figure is no more than 0.25. TVFD: the enrichment ratio was no more than 0.25. The same measure for HCAL: no more than 0.25; for GIDP: no more than 0.25; for ATFI: no more than 0.25. As for DIMW, the figure is no more than 0.25. As to AEII, the enrichment ratio was determined as 16.4.

For VIDV, the enrichment ratio is no more than 0.25. The same measure for PNIG: no more than 0.25. As for HWGR, the figure is no more than 0.25. As for YYSK, the figure is no more than 0.25; as for FNIC, no more than 0.25. On to IERP, for which the enrichment ratio is no more than 0.25. As for QQSK, the figure is no more than 0.25; as for NSQP, no more than 0.25; as for YWGK, no more than 0.25. The same measure for STHR: no more than 0.25; for YTLF: 6.76.

As to VVCI, the enrichment ratio is no more than 0.25.

LQPA: the enrichment ratio was no more than 0.25. The same measure for RGHC: no more than 0.25. As for SWAI, the figure is no more than 0.25. The same measure for KTHG: no more than 0.25; for NRRS: no more than 0.25; for LFIP: no more than 0.25. On to PELE, for which the enrichment ratio is no more than 0.25. The same measure for CFGL: no more than 0.25; for IPRI: no more than 0.25; for QCHF: no more than 0.25.

With WCRF, the enrichment ratio is no more than 0.25. The same measure for LMQH: no more than 0.25; for GNHN: no more than 0.25; for HKHG: no more than 0.25.

SMWD: the enrichment ratio was no more than 0.25. For GRYI, the enrichment ratio is no more than 0.25. The same measure for KRNT: no more than 0.25. On to WDRH, for which the enrichment ratio is no more than 0.25.

In the case of AQCF, the enrichment ratio turned out to be 10.6. The same measure for YKAE: no more than 0.25; for QRYE: no more than 0.25.

Turning to VWAC, the enrichment ratio was no more than 0.25.

For KPHM, the enrichment ratio is no more than 0.25. As for YHDN, the figure is no more than 0.25; as for CFLG, no more than 0.25. As for RLKV, the figure is 0.555; as for RNAC, no more than 0.25. ADRT: the enrichment ratio was no more than 0.25. As for TYTL, the figure is 15.2. In the case of ELVI, the enrichment ratio was no more than 0.25. As for KFRF, the figure is no more than 0.25; as for HCCG, no more than 0.25; as for KDPG, no more than 0.25.

As for KHFD, the enrichment ratio is no more than 0.25. The same measure for DQFT: no more than 0.25. The same measure for PHAQ: no more than 0.25; for STGP: no more than 0.25. As for SGAG, the figure is 8.48. For the variant KQYW, the enrichment ratio is no more than 0.25. Consider DRDD, for which the enrichment ratio was no more than 0.25. The same measure for HSYM: no more than 0.25; for RLWS: no more than 0.25; for DELV: no more than 0.25. As for FVRF, the figure is no more than 0.25. As for VVLW, the figure is no more than 0.25; as for VMAH, no more than 0.25.

As to AHHP, the enrichment ratio was no more than 0.25. The same measure for YDPT: no more than 0.25; for WEGY: no more than 0.25. The same measure for MAAM: 2.01; for IKIM: no more than 0.25. As for PGGT, the figure is no more than 0.25; as for MLYI, 8.89; as for LFEN, no more than 0.25. As to YMNH, the enrichment ratio is no more than 0.25. The same measure for IQQA: no more than 0.25; for WFQY: no more than 0.25. On to NSMP, for which the enrichment ratio is no more than 0.25. As for ESNH, the figure is no more than 0.25; as for QCNS, no more than 0.25; as for MRIL, no more than 0.25. As for GRWW, the figure is no more than 0.25; as for RYTA, no more than 0.25; as for KSNR, no more than 0.25. The same measure for NTYV: no more than 0.25.

With VWPS, the enrichment ratio was no more than 0.25. Consider FATT, for which the enrichment ratio was no more than 0.25. As for NPKL, the figure is no more than 0.25; as for KIAM, no more than 0.25; as for RDEH, no more than 0.25. The same measure for RNDH: no more than 0.25; for MMTF: no more than 0.25. The same measure for LQQD: no more than 0.25. In the case of VGES, the enrichment ratio is no more than 0.25. Take IVES: the enrichment ratio is no more than 0.25. Turning to FHQH, the enrichment ratio is no more than 0.25. As for DEDH, the figure is no more than 0.25; as for RMSD, no more than 0.25. The same measure for KAKR: no more than 0.25; for YQRA: no more than 0.25. As for GELG, the figure is 22.4; as for NWAF, no more than 0.25.

On to QAFP, for which the enrichment ratio is no more than 0.25. The same measure for PALF: no more than 0.25; for IHPE: no more than 0.25; for LVAG: no more than 0.25. As for PWAW, the figure is no more than 0.25; as for FPPS, no more than 0.25; as for PYMW, no more than 0.25. Turning to KSTC, the enrichment ratio was no more than 0.25.

Consider QKNC, for which the enrichment ratio was no more than 0.25. As for QFAG, the figure is no more than 0.25; as for HLKD, no more than 0.25; as for WKEG, no more than 0.25. The same measure for RWHC: no more than 0.25; for DRRP: no more than 0.25; for EHAC: no more than 0.25.

Consider GGRN, for which the enrichment ratio is no more than 0.25. As for SFRQ, the figure is no more than 0.25; as for RKQT, no more than 0.25. As for FCSI, the figure is no more than 0.25. As for RKVQ, the figure is no more than 0.25; as for RMLD, no more than 0.25. As for RIIW, the enrichment ratio is no more than 0.25. The same measure for GNDP: no more than 0.25.

For HQMF, the enrichment ratio is no more than 0.25. As for FTRV, the figure is no more than 0.25. The same measure for HWIV: no more than 0.25; for YQHK: no more than 0.25; for VGDN: no more than 0.25. The same measure for NRIW: no more than 0.25. With FNSM, the enrichment ratio was no more than 0.25. As for NCVI, the figure is no more than 0.25; as for RAGQ, no more than 0.25.

Turning to SMFF, the enrichment ratio is no more than 0.25.

Regarding HDLH, the enrichment ratio is no more than 0.25. The same measure for VLKT: no more than 0.25; for KDIH: no more than 0.25. As for SQHD, the figure is no more than 0.25. For LFCL, the enrichment ratio was no more than 0.25. As for ICCH, the figure is no more than 0.25. As for IGVC, the figure is no more than 0.25; as for DRYM, no more than 0.25.

As to YQTM, the enrichment ratio is no more than 0.25. Consider RETR, for which the enrichment ratio is no more than 0.25. As for AFPC, the figure is no more than 0.25; as for THDL, 3.68; as for GYIL, no more than 0.25. Regarding EYHA, the enrichment ratio was no more than 0.25.

On to DFTI, for which the enrichment ratio was no more than 0.25. The same measure for FRTT: no more than 0.25.
